Laboratory results published in PubChem BioAssay (NCATS).
This list was built around the results that the source calls inconclusive (neither active nor inactive); the mix of calls is not that of the screen. For some assays here: No potency is given beside an inconclusive call; the fits are too rough. The source made the active and inactive calls. Unless noted, the call rests on the fitted dose curve; in most records, active means well fitted curve in the direction sought with a large enough effect; inconclusive means small, poorly fitted or top-dose-only effect, or another doubt; inactive means no such curve, though single readings can be large; an effect the other way counts as inactive or inconclusive.

Key:
[1] = biological target: Retinoic acid receptor RXR-alpha (Homo sapiens) (UniProt P19793); test: qHTS assay for small molecule agonists of retinoid X receptor alpha signaling (AID 588544; calls by dose curve;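 further: 0% = DMSO basal wells and 100% = reference agonist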); settings: HEK293T RXRa-UAS-bla, beta-lactamase reporter, 18 h; activation: at 76.7 µM (top of the series)
UniProt P19793, sequence (P19793 whole entry, looked up): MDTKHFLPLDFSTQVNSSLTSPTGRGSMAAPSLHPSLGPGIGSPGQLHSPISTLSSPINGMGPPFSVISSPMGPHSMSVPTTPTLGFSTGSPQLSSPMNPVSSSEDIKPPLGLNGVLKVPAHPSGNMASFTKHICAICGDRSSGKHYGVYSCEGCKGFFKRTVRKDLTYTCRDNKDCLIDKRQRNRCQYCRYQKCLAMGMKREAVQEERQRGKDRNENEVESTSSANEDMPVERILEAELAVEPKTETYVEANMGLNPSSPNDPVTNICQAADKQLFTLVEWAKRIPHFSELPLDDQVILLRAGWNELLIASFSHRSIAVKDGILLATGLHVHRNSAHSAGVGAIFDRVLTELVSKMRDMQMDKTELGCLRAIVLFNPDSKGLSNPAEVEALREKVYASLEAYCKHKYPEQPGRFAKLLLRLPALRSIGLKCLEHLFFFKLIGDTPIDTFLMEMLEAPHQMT

[2] = biological target: Retinoic acid receptor RXR-alpha (Homo sapiens) (UniProt P19793); test: qHTS assay for small molecule antagonists of retinoid X receptor alpha signaling (AID 588546; active means well fitted inhibition curve with a large enough effect in the signal ratio, with a control signal flat, not every such curve was filed as active; inconclusive means small, poorly fitted or top-dose-only effect, or effect the other way, or a change in a side signal; inactive means no such curve, though single readings can be large or run the other way; the % refers to the signal ratio;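 further: cells stimulated with 9-cis-retinoic acid as agonist; on the % scale 0 is the no-effect control and ±100 the full control effect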); settings: HEK293T RXRa-UAS-bla, beta-lactamase ratio, antagonist mode
In short: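 Beta-lactamase reporter inhibition, read as CCF4 fluorescence ratio (ex 405, em 460/530 nm) after 2 h at RT. HEK293T UAS-bla cells, 2500/well, were stimulated with 9-cis-RA at 500 or 100 nM final alongside test compound for 18 h at 37 C.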

[3] = biological target: Thyroid hormone receptor beta (Homo sapiens) (UniProt P10828); test: qHTS assay for small molecule antagonists of thyroid hormone receptor beta signaling (AID 588547; active means well fitted inhibition curve with a large enough effect in the signal ratio, with a control signal flat, not every such curve was filed as active; inconclusive means small, poorly fitted or top-dose-only effect, or effect the other way, or a change in a side signal; the % refers to the signal ratio;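 further: cells stimulated with 0.4 nM T3 agonist during compound exposure; on the % scale 0 is the no-effect control and ±100 the full control effect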); settings: TR-UAS-bla HEK293, beta-lactamase ratio, antagonist mode, 18 h
UniProt P10828, sequence (P10828 whole entry, looked up): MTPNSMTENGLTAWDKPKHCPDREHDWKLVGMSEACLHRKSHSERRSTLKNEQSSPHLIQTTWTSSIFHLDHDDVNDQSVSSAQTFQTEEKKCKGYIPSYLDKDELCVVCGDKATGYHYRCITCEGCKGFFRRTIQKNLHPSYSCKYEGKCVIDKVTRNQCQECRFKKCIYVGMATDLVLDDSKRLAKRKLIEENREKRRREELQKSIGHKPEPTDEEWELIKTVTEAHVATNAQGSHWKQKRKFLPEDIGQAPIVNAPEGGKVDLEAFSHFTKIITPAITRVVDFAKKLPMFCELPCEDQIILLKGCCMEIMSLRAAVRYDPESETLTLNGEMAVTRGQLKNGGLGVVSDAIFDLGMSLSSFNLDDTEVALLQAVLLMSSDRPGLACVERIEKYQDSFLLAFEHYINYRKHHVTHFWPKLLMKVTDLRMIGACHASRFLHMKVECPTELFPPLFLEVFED
In short: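 TR-UAS-bla GripTite HEK293 cells in 2% charcoal/dextran FBS medium; compounds 0.59 nM to 92 uM with T3 at 0.4nM final, 18 h at 37 C. Beta-lactamase read by CCF4 fluorescence (460/530 nm); Hill fits gave IC50 and efficacy.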

[4] = qHTS assay for small molecule agonists of the antioxidant response element (ARE) signaling pathway (AID 651741; active means well fitted activation curve with a large enough effect in the signal ratio; inconclusive means small, poorly fitted or top-dose-only effect, or effect the other way, or a change in a side signal; the % refers to the signal ratio; further: potency means the concentration at half of the fitted maximal effect); settings: HepG2 ARE-bla reporter, beta-lactamase FRET ratio, 16 h; activation: at 96 µM (top of the series)
In short: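 CellSensor ARE-bla HepG2 cells (2,000/well) carrying ARE-driven beta-lactamase, exposed 16 h at 37 C. LiveBLAzer B/G FRET substrate added for 2 h at room temperature; fluorescence intensity read.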

[5] = biological target: Peroxisome proliferator-activated receptor alpha (Homo sapiens) (UniProt Q07869); test: qHTS assay for small molecule agonists of the peroxisome proliferator-activated receptor alpha (PPARalpha) signaling pathway (AID 651778); settings: PathHunter PPARalpha complementation, chemiluminescence, 6 h; further: potency means the concentration at half of the fitted maximal effect
UniProt Q07869, sequence (Q07869 whole entry, looked up, the tested form may be a part): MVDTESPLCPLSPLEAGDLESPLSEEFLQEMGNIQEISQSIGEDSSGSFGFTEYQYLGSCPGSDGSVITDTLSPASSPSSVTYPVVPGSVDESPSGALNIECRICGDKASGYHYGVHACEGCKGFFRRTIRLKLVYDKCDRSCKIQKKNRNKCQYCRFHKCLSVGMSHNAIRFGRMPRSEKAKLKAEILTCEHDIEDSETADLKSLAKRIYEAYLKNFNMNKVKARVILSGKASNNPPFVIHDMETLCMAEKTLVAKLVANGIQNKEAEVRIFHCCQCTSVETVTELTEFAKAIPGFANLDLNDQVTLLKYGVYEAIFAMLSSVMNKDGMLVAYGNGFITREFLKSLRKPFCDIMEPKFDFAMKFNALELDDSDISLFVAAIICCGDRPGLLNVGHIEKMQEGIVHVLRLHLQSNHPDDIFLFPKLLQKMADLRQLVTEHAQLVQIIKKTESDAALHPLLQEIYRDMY
In short: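 Enzyme-fragment complementation assay in which ligand-bound PPARalpha translocates and forms an active enzyme that generates chemiluminescence. Cells were plated overnight, exposed to compound for 6 hr at 37 C, and then given detection reagent for 60 min at room temperature.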

[6] = qHTS assay for cell viability of HEK293 cells (AID 743288); settings: ATP luminescence (CellTiter-Glo), 18 h; max response: stronger effect = lower value; further: on the % scale 0 is the no-effect control and ±100 the full control effect; nearly all actives have a fitted effect of over 50% in size
In short: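 HEK293 parental, 2,000 cells/well; ≥5 h pre-incubation 37 C; pintool compound addition; 18 h, 37 C; CellTiter-Glo 30 min RT; luminescence read.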

[7] = biological target: DNA repair nuclease/redox regulator APEX1 (Homo sapiens) (UniProt P27695); test: qHTS FP-Based Assay for Inhibitors of the Human Apurinic/apyrimidinic Endonuclease 1 (APE1) (AID 2573); further: on the % scale 0 is the no-effect control and ±100 the full control effect
UniProt P27695, sequence (P27695 whole entry, looked up): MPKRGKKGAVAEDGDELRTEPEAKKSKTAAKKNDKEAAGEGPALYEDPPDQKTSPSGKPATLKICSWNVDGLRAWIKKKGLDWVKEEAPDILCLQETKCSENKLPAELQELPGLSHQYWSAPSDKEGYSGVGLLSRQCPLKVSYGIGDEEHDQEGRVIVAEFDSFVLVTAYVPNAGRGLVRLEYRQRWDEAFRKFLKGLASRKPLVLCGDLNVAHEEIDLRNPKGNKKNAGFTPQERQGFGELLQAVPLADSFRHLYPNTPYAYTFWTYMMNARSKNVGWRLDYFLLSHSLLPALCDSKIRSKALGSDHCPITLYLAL

[8] = tested on: Zika virus NS2B-NS3 protease (unlinked complex); test: Primary screen GU Rhodamine qHTS for Zika virus inhibitors: Unlinked NS2B-NS3 protease assay (AID 1347159); settings: Recombinant ZIKV NS2B-NS3 protease, Rhodamine110 substrate fluorescence; activity change, negative = inhibition: at 107 µM (top of the series); further: potency means the concentration at half of the fitted maximal effect; nearly all actives have a fitted effect of over 60% in size
In short: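 Compounds, tested up to 114 microM, were incubated for 15 minutes with 25 nM unlinked NS2B-NS3 protease at pH 8.0. Cleavage of 1.5 microM Rhodamine110 substrate was then followed by fluorescence for 15 minutes.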

[9] = Primary fluorescence-based thiol-reactive (MSTI) qHTS assay for identification of artifact compounds. (AID 1845221);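 further: potency means the concentration at half of the fitted maximal effect; thiol-reactive compounds lower the probe fluorescence signal; nearly all actives have a fitted effect of over 65% in size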
In short: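 A multi-concentration qHTS design tested compounds against 4 uM MSTI, pH 7.4 phosphate-buffered saline. Plates were protected from light for 1 h at room temperature before imaging fluorescence.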

[10] = qHTS of pediatric cancer cell lines to identify multiple opportunities for drug repurposing: Primary screen for Rh41 cells (AID 1347108);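 further: luminescence drop marks cytotoxic hits; nearly all actives have a fitted effect of over 70% in size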
In short: (§1)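 CRCs from 8- or 11-point titrations (lowest final 0.59 nM NPC, 0.78 nM MIPE). Cell viability: CellTiter-Glo after 48 h incubation, 15 min room-temperature development, luminescence imaging.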

[11] = biological target: Cytochrome P450 3A4 (Homo sapiens) (UniProt P08684); test: Cytochrome P450 family 3 subfamily A member 4 (CYP3A4) small molecule antagonists: luciferase qHTS assay (AID 1645841; active means well fitted curve in the direction sought with a large enough effect in the repeat runs; inconclusive means weak or mixed curves; inactive means no such curve, though single readings can be large; an effect the other way counts as inactive or inconclusive; further: potency means the concentration at half of the fitted maximal effect; nearly all actives have a fitted effect of over 45% in size)
UniProt P08684, sequence (P08684 whole entry, looked up): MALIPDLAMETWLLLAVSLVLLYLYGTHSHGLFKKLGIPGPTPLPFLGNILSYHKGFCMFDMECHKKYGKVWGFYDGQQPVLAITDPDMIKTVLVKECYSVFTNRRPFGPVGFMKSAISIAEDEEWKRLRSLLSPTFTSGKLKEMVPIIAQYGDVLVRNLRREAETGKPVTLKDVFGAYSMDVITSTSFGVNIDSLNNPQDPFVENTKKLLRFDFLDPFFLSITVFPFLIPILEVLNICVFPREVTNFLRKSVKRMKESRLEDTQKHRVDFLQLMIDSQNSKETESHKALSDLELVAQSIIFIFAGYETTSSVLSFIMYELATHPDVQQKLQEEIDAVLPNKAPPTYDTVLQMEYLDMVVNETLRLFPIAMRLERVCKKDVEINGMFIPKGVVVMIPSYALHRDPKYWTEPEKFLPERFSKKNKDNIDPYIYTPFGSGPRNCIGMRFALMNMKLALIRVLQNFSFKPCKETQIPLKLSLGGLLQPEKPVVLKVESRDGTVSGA
In short: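 P450-Glo CYP3A4 enzyme with proluciferin substrate preincubated 10 min with compound at room temperature, then NADPH regeneration 1 h. Luciferin detection reagent added for 20 min; luminescence recorded. Ketoconazole positive control.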

[12] = qHTS of pediatric cancer cell lines to identify multiple opportunities for drug repurposing: Primary screen for TC32 cells (AID 1347089); further: potency means the concentration at half of the fitted maximal effect; nearly all actives have a fitted effect of over 60% in size
In short: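 qHTS, TC32, 48 h drug treatment, CellTiter-Glo luminescence as a proxy for metabolically active cells; primary top concentration 46 µM (MIPE 11-pt, NPC 8-pt); confirmatory 11-pt.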

[13] = qHTS of pediatric cancer cell lines to identify multiple opportunities for drug repurposing: Primary screen for U-2 OS cells (AID 1347096); further: potency means the concentration at half of the fitted maximal effect; nearly all actives have a fitted effect of over 50% in size
In short: (§2)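 Viability after 48 h compound treatment at 37C, 500-1,000 cells/well, read as ATP luminescence with CellTiter-Glo. Primary screens used 11-point (MIPE, 0.78 nM-46 µM) or 8-point (NPC, 0.59 nM-46 µM) final concentrations; follow-up screens used 11-point dilutions.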

[14] = qHTS of pediatric cancer cell lines to identify multiple opportunities for drug repurposing: Primary screen for MG 63 (6-TG R) cells (AID 1347105); settings: MG 63 (6-TG R) viability, CellTiter-Glo, 48 h; activity change, negative = cytotoxic: at 46 µM (top of the series); further: potency means the concentration at half of the fitted maximal effect; nearly all actives have a fitted effect of over 50% in size
In short: as §1

[15] = qHTS of pediatric cancer cell lines to identify multiple opportunities for drug repurposing: Primary screen for control Hh wild type fibroblast cells (AID 1347106); further: potency means the concentration at half of the fitted maximal effect; nearly all actives have a fitted effect of over 55% in size
In short: as §2

[16] = qHTS of pediatric cancer cell lines to identify multiple opportunities for drug repurposing: Confirmatory screen for DAOY cells (AID 1347114); further: potency means the concentration at half of the fitted maximal effect; nearly all actives have a fitted effect of over 65% in size
In short: (§3)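 Viability measured as metabolically active cells via CellTiter-Glo luminescence following 48 hours of compound exposure, 11-point dilutions in confirmatory testing. 500-1,000 cells/well plated 5 hours before dosing; controls were DMSO and 2.3 µM bortezomib.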

[17] = qHTS of pediatric cancer cell lines to identify multiple opportunities for drug repurposing: Confirmatory screen for NB-EBc1 cells (AID 1347115);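 further: potency means the concentration at half of the fitted maximal effect; cells exposed to compound for 48 h before the viability read; nearly all actives have a fitted effect of over 45% in size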
In short: as §2

[18] = qHTS of pediatric cancer cell lines to identify multiple opportunities for drug repurposing: Confirmatory screen for SJ-GBM2 cells (AID 1347116); further: potency means the concentration at half of the fitted maximal effect; nearly all actives have a fitted effect of over 60% in size
In short: as §3

[19] = qHTS of pediatric cancer cell lines to identify multiple opportunities for drug repurposing: Confirmatory screen for BT-37 cells (AID 1347117); further: potency means the concentration at half of the fitted maximal effect; nearly all actives have a fitted effect of over 55% in size
In short: as §2

[20] = qHTS of pediatric cancer cell lines to identify multiple opportunities for drug repurposing: Confirmatory screen for control Hh wild type fibroblast cells (AID 1347121); further: potency means the concentration at half of the fitted maximal effect; nearly all actives have a fitted effect of over 70% in size
In short: as §2
Tags describe the fitted curve by direction and shape.

With CCCc1c(OCCCOc2ccc(OCC(=O)O)cc2)ccc(C(C)=O)c1O the activation [1] was inconclusive: 1.88%, the max response [2] was inactive: -30.3% and the activity change % (negative = inhibition) [3] was inconclusive: 10.2%. For the same molecule, the Potency [4] was active: 54.5 µM, the Potency [5] was active: 11.2 µM and the max response [6] was inactive: -9.62%.

With COc1cc(N)c(Cl)cc1C(=O)OCCN1CCCCC1 the Potency [7] was “inactive”.

In the case of CC1(C)O[C@@]2(C)CC[C@@H]1C[C@@H]2OC1OC(CO)C(O)C(O)C1O (stereo not given in full), the Potency [8] was inconclusive [inhibitor, full curve, poor fit] and the Potency [9] was active: 7.36 µM.

For CCN1CCN(C(=O)N[C@@H](C(=O)N[C@@H]2C(=O)N3[C@@H]2SC(C)(C)[C@H]3C(=O)O)c2ccccc2)C(=O)C1=O, the Potency [10] was “inactive” and the Potency [11] was inconclusive [falling, single point].

With C[C@@H]1O[C@@H](O[C@H]2CC[C@@]3(C)[C@H](CC[C@@H]4[C@H]3C[C@@H](O)[C@]3(C)[C@@H](C5=CC(=O)OC5)CC[C@]43O)C2)C[C@H](O)[C@@H]1O[C@H]1C[C@H](O)[C@H](O[C@H]2C[C@H](O)[C@@H](O)[C@@H](C)O2)[C@H](C)O1 (stereo in doubt) the Potency [12] was active: 0.38 µM, the Potency [13] was active: 0.34 µM and the Potency [14] was active: 0.0679 µM. For the same molecule, the Potency [15] was inconclusive [cytotoxic, full curve], the Potency [16] was inconclusive [cytotoxic, full curve, poor fit] and the Potency [17] was inconclusive [cytotoxic, full curve]. The Potency [18] was active: 0.302 µM, the Potency [19] was active: 0.0955 µM and the Potency [20] was inconclusive [cytotoxic, full curve].
